Results taken from article PMC4274898.
Results are given in words; binding and its absence hold for the method and conditions named. For part of these data: In cells and extracts the contact can be indirect. Some entries that bind do so weakly or less than the wild type. Each block holds one binder with its values, some of them ahead of it.

Tests used:
[1] = target: T1, ARF11 (Arabidopsis thaliana), Q9ZPY6; assay: two-hybrid; S. cerevisiae AH109 co-transformed with pGBKT7-ARF (bait) and pGADT7-Aux/IAA (prey); growth on SD/-Ade-His-Leu-Trp against SD/-Leu/-Trp; at least 10 independent colonies; serial dilutions for strength; conditions: remark: other sources report otherwise
T1 chain: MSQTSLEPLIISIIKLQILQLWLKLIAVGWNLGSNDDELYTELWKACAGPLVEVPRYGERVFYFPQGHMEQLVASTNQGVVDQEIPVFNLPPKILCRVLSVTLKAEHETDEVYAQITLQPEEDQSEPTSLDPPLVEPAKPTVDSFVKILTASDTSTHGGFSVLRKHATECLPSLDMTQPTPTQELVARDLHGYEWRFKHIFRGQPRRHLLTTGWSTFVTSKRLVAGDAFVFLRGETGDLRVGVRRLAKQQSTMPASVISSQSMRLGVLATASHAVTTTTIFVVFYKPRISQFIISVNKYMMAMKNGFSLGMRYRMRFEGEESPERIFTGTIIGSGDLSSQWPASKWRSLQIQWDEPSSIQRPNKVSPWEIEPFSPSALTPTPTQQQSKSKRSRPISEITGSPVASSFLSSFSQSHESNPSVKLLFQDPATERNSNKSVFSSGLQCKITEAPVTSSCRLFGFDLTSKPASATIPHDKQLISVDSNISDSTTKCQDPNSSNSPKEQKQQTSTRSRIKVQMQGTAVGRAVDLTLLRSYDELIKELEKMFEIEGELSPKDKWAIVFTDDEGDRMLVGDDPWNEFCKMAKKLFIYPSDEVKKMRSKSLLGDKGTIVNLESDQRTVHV

[2] = target: T2, cEYFP-ARF6 (Arabidopsis thaliana) (UniProt Q9ZTX8); assay: split reporter; BiFC: cEYFP-ARF and nEYFP-Aux/IAA fusions co-expressed in onion epidermal cells by particle bombardment; 25°C in dark for 16-24 h; YFP fluorescence imaged
T2 sequence: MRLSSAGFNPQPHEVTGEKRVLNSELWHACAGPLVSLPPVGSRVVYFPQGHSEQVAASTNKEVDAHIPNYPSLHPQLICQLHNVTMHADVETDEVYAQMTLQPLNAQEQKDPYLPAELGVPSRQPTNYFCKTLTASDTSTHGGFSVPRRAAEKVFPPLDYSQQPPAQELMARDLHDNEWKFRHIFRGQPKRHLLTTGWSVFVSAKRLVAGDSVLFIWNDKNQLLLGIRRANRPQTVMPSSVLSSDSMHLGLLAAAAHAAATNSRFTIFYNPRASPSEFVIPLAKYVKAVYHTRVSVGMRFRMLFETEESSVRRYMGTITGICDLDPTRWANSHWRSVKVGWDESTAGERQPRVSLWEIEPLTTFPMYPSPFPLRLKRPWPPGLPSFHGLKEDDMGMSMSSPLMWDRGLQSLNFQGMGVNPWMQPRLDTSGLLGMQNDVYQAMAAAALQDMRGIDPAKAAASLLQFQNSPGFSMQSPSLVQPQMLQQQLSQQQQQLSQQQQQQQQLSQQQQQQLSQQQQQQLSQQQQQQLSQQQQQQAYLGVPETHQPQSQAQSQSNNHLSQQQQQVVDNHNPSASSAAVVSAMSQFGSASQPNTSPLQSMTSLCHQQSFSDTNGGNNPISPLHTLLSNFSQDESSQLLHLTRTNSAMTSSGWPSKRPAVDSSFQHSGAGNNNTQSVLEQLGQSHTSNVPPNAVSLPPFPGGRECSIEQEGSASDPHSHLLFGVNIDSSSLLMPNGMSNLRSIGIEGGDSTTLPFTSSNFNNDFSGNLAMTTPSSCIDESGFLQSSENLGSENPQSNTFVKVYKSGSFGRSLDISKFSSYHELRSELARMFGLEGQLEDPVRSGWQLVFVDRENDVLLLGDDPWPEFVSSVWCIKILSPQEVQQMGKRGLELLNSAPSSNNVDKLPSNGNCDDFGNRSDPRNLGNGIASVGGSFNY

[3] = target: T3, cEYFP-ARF19 (Arabidopsis thaliana) (UniProt Q8RYC8); assay: as above
T3 sequence: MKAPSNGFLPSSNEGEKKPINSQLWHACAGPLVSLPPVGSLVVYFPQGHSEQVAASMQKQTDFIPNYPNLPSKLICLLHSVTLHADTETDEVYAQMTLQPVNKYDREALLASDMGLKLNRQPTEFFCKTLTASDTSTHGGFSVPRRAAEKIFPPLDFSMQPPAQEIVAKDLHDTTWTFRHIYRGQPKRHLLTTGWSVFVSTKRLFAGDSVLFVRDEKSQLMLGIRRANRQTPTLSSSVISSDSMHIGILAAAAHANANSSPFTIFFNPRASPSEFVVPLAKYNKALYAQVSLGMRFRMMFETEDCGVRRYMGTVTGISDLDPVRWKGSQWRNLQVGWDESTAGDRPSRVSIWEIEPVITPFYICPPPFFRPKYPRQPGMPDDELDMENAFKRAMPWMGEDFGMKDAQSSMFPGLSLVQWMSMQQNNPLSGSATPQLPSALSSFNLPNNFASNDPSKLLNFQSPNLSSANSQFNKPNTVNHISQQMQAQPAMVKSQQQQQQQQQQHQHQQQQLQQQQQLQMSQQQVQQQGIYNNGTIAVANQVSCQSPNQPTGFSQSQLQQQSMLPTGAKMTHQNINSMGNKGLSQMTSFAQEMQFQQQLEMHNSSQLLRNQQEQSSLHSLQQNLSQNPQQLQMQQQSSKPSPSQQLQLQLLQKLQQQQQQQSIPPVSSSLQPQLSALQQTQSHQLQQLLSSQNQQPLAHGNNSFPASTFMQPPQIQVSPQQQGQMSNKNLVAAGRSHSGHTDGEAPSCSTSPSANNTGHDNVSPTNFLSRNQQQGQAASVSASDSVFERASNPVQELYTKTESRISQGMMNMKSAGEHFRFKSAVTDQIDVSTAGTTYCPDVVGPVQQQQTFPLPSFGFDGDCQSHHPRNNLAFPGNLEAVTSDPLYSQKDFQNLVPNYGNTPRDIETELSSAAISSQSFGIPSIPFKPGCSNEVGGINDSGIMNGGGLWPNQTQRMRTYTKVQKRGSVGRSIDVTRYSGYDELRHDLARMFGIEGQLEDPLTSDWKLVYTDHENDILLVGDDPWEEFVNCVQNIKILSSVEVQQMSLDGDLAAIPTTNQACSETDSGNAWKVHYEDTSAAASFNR

binding [1]: no binding
B1: Aux/IAA8, Q38826 1-321 (protein)
chain: MSYRLLSVDKDELVTSPCLKERNYLGLSDCSSVDSSTIPNVVGKSNLNFKATELRLGLPESQSPERETDFGLLSPRTPDEKLLFPLLPSKDNGSATTGHKNVVSGNKRGFADTWDEFSGVKGSVRPGGGINMMLSPKVKDVSKSIQEERSHAKGGLNNAPAAKAQVVGWPPIRSYRKNTMASSTSKNTDEVDGKPGLGVLFVKVSMDGAPYLRKVDLRTYTSYQQLSSALEKMFSCFTLGQCGLHGAQGRERMSEIKLKDLLHGSEFVLTYEDKDGDWMLVGDVPWEIFTETCQKLKIMKGSDSIGLAPGAVEKSKNKERV

binding [2]: binds
B2: nEYFP-Aux/IAA32 (protein, UniProt Q8RYC6 1-191)
chain: MDPNTPADFFKGSSKFHTYYSQTKKGGGVIDLGLSLRTIQHETYLPPARMIGLDGYGELIDWSQPSYNSITQLKSEDTGHQRLAQGYYNNEGESRGKYAYVKVNLDGLVVGRKVCLVDQGAYATLALQLNDMFGMQTVSGLRLFQTESEFSLVYRDREGIWRNVGDVPWKEFVESVDRMRIARRNDALLPF

binding [3]: binds
B3: nEYFP-Aux/IAA34 (protein, UniProt Q9C5X0 1-185)
chain: MYCSDPPHPLHLVASDKQQKDHKLILSWKKPTMDSDPLGVFPNSPKYHPYYSQTTEFGGVIDLGLSLRTIQHEIYHSSGQRYCSNEGYRRKWGYVKVTMDGLVVGRKVCVLDHGSYSTLAHQLEDMFGMQSVSGLRLFQMESEFCLVYRDEEGLWRNAGDVPWNEFIESVERLRITRRNDAVLPF
